Results reported in PubChem BioAssay AID720709 (National Center for Advancing Translational Sciences (NCATS), 2013).
About 520 (0.14%) of roughly 360,000 compounds were called active. The inconclusive results got no clear call from the source; some entries with a clear call stand among them for comparison. Calls come from the whole dose curve; as a rule, active = well fitted inhibition curve with a large enough effect; inconclusive = small, poorly fitted or top-dose-only effect; inactive = no such curve, though single readings can be large or run the other way. Potencies of inconclusive entries are left out as doubtful fits.

molecular target: Rap guanine nucleotide exchange factor 3 (Homo sapiens) (UniProt O95398); assay: qHTS for Antagonist of cAMP-regulated guanine nucleotide exchange factor 3 (EPAC1): primary screen; conditions: EPAC1 GEF assay, Rap1b-BODIPY-GDP exchange fluorescence; activity change, negative = inhibition: at 115 µM (top of the series); note: nearly all actives have a fitted effect of over 50% in size;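 for activity change, negative = inhibition: plate controls were vehicle for no effect and positive control for full effect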
Chain of UniProt O95398 (O95398 whole entry, looked up): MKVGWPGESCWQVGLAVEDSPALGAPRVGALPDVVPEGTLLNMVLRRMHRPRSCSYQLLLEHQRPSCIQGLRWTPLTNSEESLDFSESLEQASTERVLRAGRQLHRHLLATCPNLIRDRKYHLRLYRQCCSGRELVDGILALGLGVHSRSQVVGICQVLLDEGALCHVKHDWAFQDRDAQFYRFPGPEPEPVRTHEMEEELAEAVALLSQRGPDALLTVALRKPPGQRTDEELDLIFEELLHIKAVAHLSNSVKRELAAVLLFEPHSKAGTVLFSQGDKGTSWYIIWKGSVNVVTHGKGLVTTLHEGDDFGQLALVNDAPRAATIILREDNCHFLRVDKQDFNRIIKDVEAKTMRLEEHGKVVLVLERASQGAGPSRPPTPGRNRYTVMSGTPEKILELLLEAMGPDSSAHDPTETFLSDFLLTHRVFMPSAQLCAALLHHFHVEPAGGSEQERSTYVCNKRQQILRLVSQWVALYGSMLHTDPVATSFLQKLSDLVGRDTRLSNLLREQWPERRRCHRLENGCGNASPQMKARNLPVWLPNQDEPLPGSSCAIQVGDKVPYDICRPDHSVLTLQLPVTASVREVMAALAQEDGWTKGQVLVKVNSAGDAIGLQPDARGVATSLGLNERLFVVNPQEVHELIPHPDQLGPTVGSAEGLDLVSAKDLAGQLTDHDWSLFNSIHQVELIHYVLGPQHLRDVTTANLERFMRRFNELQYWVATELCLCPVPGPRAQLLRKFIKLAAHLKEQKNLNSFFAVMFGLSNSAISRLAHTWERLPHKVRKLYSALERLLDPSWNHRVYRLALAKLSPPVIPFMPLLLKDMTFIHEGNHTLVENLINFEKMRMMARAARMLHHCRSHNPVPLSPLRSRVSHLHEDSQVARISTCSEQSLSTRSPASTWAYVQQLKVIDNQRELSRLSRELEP
Potency is the fitted concentration of half-maximal effect; tags give direction and shape of the fitted curve.

| Compound | Potency | activity change, negative = inhibition |
| --- | --- | --- |
| CC1(C)Cc2cccc(OCC(=O)Nc3cc(S(C)(=O)=O)ccc3Cl)c2O1 | inconclusive [inhibitor, full curve, poor fit] | – |
| CNc1cnc(-c2cc(OC)c(OC)c(OC)c2)cn1 | inconclusive [inhibitor, full curve, poor fit] | – |
| CCS(=O)(=O)c1ncc(Cl)c(C(=O)Nc2ccc(C)cc2)n1 | inconclusive [inhibitor, single point] | – |
| Cc1ccc(-c2cn3nc(-c4ccccc4)c(-c4ccccc4)nc3n2)cc1 | inactive | – |
| Cn1ccc2cc3c(cc21)CCN3C(=O)Nc1cccnc1 | inactive | – |
| Cc1cc(-c2ccccc2C(=O)O)on1 | inactive | – |
| COC(=O)CCC(=O)OC1(C)C(=O)C2=COC(c3ccc(OC)cc3)=CC2=C(Br)C1=O (stereo not given) | inconclusive [inhibitor, partial curve] | – |
| CCOc1ccc(C(=O)N/N=C/c2ccc(-c3ccc(S(=O)(=O)Nc4ncccn4)cc3)o2)cc1 | inconclusive [inhibitor, single point] | – |
| O=C(CSc1nnc(CCCN2C(=O)c3cccc4cccc(c34)C2=O)n1-c1ccccc1)N1CCCCC1 | inconclusive [inhibitor, full curve, poor fit] | – |
| COc1ccc(CCNC(=O)CSc2nnc(CNC(=O)c3cc(OC)c(OC)c(OC)c3)o2)cc1OC | inconclusive [inhibitor, single point] | – |
| CC(=O)Nc1ccc(NC(=O)c2nc(S(=O)(=O)Cc3cccc(C)c3)ncc2Cl)cc1 | inconclusive [inhibitor, single point] | – |
| N=C(N)SCc1ncccc1O | inactive | – |
| Cc1ccc(NC(=O)/C(=C\c2ccco2)NC(=O)c2ccco2)cc1 | inconclusive [inhibitor, partial curve] | – |
| COc1ccc2[nH]c3c(=O)n(CCCCCC(=O)NCCC(C)C)c(=S)[nH]c3c2c1 | inconclusive [inhibitor, full curve, poor fit] | – |
| O=C(c1cc(-c2ccc(O)cc2)on1)N1CCCc2ccccc21 | – | inconclusive: -7.09% [inhibitor] |
| CC(Sc1nnc(-c2ccccc2F)n1C1CC1)C(N)=O (stereo not given) | inconclusive [inhibitor, partial curve] | – |
| Cc1ccccc1N(C(=O)CCC(=O)Nc1ccccn1)C(C(=O)NC(C)C)c1ccc(F)cc1 (stereo not given) | inconclusive [inhibitor, partial curve] | – |
| COc1cc(C2/C(=C(\O)c3ccc4c(c3)CC(C)O4)C(=O)C(=O)N2CCCn2ccnc2)ccc1O (stereo not given) | inconclusive [inhibitor, partial curve, poor fit] | – |
| O=C(CSc1nccc(=O)[nH]1)Nc1cccc2ccccc12 | inconclusive [inhibitor, partial curve] | – |
| O=C(C1=C(O)C(=O)N(CC2CCCO2)C1c1cccc(Cl)c1)c1ccco1 (stereo not given) | inactive | – |
| CCOc1cc(/C=N/Nc2cc(C)nc(-n3nc(C)cc3C)n2)ccc1O | inactive | – |
| Cc1cc(C(=O)COC(=O)c2ccccc2Br)c(C)n1CC1CCCO1 (stereo not given) | inactive | – |
| COc1cccc(Cn2nnc(C(=O)Nc3cc(Cl)ccc3OC)c2N)c1 | inconclusive [inhibitor, full curve, poor fit] | – |

| Compound | Potency | activity change, negative = inhibition |
| --- | --- | --- |
| Nc1nc(Br)c2c(F)cccc2c1-c1ccc(Cl)cc1 | inactive | – |
| Cc1csc(NC(=O)c2ccc3ccccc3n2)n1 | inactive | – |
| CCOc1ccc(NCc2nc3ccccc3n2CCOc2ccccc2)cc1 | inconclusive [inhibitor, partial curve, poor fit] | – |
| N#CC(C#N)=C(N)/C(C#N)=C/c1cc(O)c(O)c(O)c1 | inconclusive [inhibitor, single point] | – |
| CCOc1ccc(C(=O)Nc2cccc(-c3ccc(N4CCOCC4)nn3)c2)cc1OCC | inactive | – |
| Clc1cccc(CNCCCSc2ncccn2)c1Cl | inactive | – |
| O=C(O)/C(=C\c1ccc(C(F)(F)F)cc1)c1ccc(S(=O)(=O)N2CCCC2)s1 | inactive | – |
| O=C(N/N=C/c1cn(-c2ccccc2)nc1-c1cccnc1)c1ccccc1 | inconclusive [inhibitor, single point] | – |
| CCCS(=O)(=O)NC(=O)C1(C)CCN(C(=O)c2cc(C)nn2C(C)(C)C)C1 (stereo not given) | inactive | – |
| O=C(O)c1ccc2cccnc2n1 | inactive | – |
| Cc1ccc(OCC(=O)c2cc(C)n(-c3ccccc3)c2C)c([N+](=O)[O-])n1 | inconclusive [inhibitor, partial curve] | – |
| Cc1nc(N2CCN(C(=O)c3cccs3)CC2)c2c3c(sc2n1)CCCC3 | inconclusive [inhibitor, partial curve] | – |
| CSc1ccc(NC(=O)Nc2ccccc2C(N)=O)cc1 | inconclusive [inhibitor, partial curve, poor fit] | – |
| COc1ccc(C(=O)N2CCc3[nH]nc(-c4ccccc4)c3C2)cc1 | inactive | – |
| COc1cc(Nc2ncc3c(n2)CCN(C(=O)Nc2ccc(C(C)C)cc2)C3)cc(OC)c1OC | inconclusive [inhibitor, partial curve] | – |
| Cc1cc2nc3ccc(N(C)C)cc3nc2cc1N | inconclusive [inhibitor, single point] | – |
| N#CCC(=O)Nc1ccc(C(=O)OCC(=O)Nc2ccc3ccccc3c2)cc1 | inconclusive [inhibitor, single point] | – |
| CC(Nc1nc(-c2ccncc2)nc2ccccc12)c1ccccc1 (stereo not given) | inconclusive [inhibitor, single point] | – |
| OCC1CCCN(C(=S)Nc2ccc(Oc3ccccc3)cc2)C1 (stereo not given) | inconclusive [inhibitor, full curve, poor fit] | – |
| CSc1nnc(NC(=O)c2nc(S(=O)(=O)Cc3ccccc3F)ncc2Cl)s1 | inactive | – |
| CC(C(=O)NN)c1ccc([N+](=O)[O-])cc1 (stereo not given) | inconclusive [inhibitor, partial curve] | – |
| Cc1cc(OCC(=O)NCCO)cc(C)c1Cl | inconclusive [inhibitor, single point] | – |
